Results on one molecule are retold here after PMC3111228 (The Journal of neuroscience : the official journal of the …, 2011).

For the assay, the target named is recombinant CaM (calmodulin) (UniProt P0DP23). Nature of the assay: pull-down.

B1: GST-mGluR5-Cprox with R892 exchanged (R892K) (domain or fragment)
chain: not shown
For B1, the binding result is reported as “binds”.
